Among all 52,000 compounds or so, about 4,300 (8.3%) were called active. Cut-off read from the data, not from the text of the source: active = survival mostly below about 52% (no sharp cut-off); inactive = mostly above about 56%. This is one part of the list.

The subject of this assay is DeltatarO mutant. The assay can be described thus: S. aureus survival, RN4220 and DeltatarO strains – OD600, teichoic acid synthesis inhibitors, primary screen (AID 463173). As to conditions: S. aureus RN4220 wild type/DeltatarO growth, OD600, 18 h, hits give low values, screened at 18.75 µg/mL (by protocol).
As for `COc1cccc(CNC(=O)Cn2nc(C)n3c(cc4cc(C)ccc43)c2=O)c1OC`, the survival was inactive: 105%.

With `COc1ccc(-c2nc3ccccc3n2Cc2ccccc2)cc1`, the survival was active: -1%.

In the case of `Cc1c(Cl)ccc2sc(N3CCN(C(=O)CCS(=O)(=O)c4ccc(F)cc4)CC3)nc12`, the survival is active: 0%.

As for `COc1cccc(C(=O)Nc2nc(-c3nnn(-c4ccccc4C(F)(F)F)c3C)ns2)c1`, the survival was inactive: 87%.

Consider `CCOc1ccc2nc(N(Cc3cccnc3)C(=O)c3cccs3)sc2c1`, for which the survival is inactive: 83%.

Turning to `COc1cccc(-c2nc(Cn3c(=O)cc(C)c4c(C)nn(-c5ccccc5)c43)c(C)o2)c1OC`, the survival is inactive: 68%.

Take `CC1=C(C(=O)Nc2ccccc2)C(c2ccccn2)n2nc(SCc3ccccc3)nc2N1` (configuration not stated): the survival was inactive: 68%.

Take `Cc1ccc2c(c1)C(c1ccccc1)N(C(=O)COc1ccc(Cl)cc1Cl)CC(=O)N2` (configuration not stated): the survival was active: 49%.

`Cc1ccc(-n2nc(C)c3c(C(=O)Nc4ccccc4C(F)(F)F)cc(C)nc32)cc1`: the survival is inactive: 95%.

Take `N#CCOC(=O)c1cc(-c2ccc(C=C(C#N)C#N)o2)ccc1Cl`: the survival is inactive: 99%.

With `CCOC(=O)N1c2ccccc2Sc2ccccc21`, the survival is inactive: 98%.

As for `O=C(COc1ccccc1Cl)OCc1cc(=O)n2nc(-c3cccs3)sc2n1`, the survival was inactive: 66%.

`CC1(C)CC(CC(N)=O)(c2ccccc2)CCO1` (configuration not stated): the survival is inactive: 89%.

For the molecule `Cc1ccc(CNC(=O)Cc2c(C)c3cc4c(C)coc4cc3oc2=O)cc1`, the survival is inactive: 72%.

Turning to `Cc1ccccc1NC(=S)N1CCC(NC(=O)C(C)(C)C)CC1`, the survival is inactive: 92%.

`CCOC(=O)c1c(NC(=O)c2nc(SCC)ncc2Cl)sc(C(C)=O)c1C`: the survival was inactive: 75%.

Consider `CCOC(=O)c1ccc(N2CCN(c3cccc(OC)c3)CC2)c(NC(=O)Nc2ccc(OCC)cc2)c1`, for which the survival is active: -5%.

Take `O=C(O)c1ccc(CNCc2ccc(Cl)cc2)s1`: the survival was inactive: 97%.

Regarding `CC(C)CN(C(=O)c1cccc(S(=O)(=O)N2CCCCC2)c1)C1CCS(=O)(=O)C1` (configuration not stated), the survival was inactive: 67%.

With `Cc1ccc2nc(Nc3cccc(Cl)c3C)c(-n3nc(C)cc3C)nc2c1`, the survival was inactive: 123%.

With `Cc1c(-c2nc(-c3ccc4c(c3)OCO4)no2)nnn1-c1ccc(Br)cc1F`, the survival is inactive: 83%.

`Cc1ccccc1NC(=O)Cn1c(SCC(=O)Nc2ccc(F)cc2)nc2ccccc21`: the survival is inactive: 95%.

`CCOC(=O)c1ccc(NC(=O)Cn2c(=O)n(-c3ccc(C)cc3)c(=O)c3c2cnn3C)cc1`: the survival was inactive: 81%.

For the molecule `COc1ccc(S(=O)(=O)Nc2ccccc2C(=O)NCc2ccco2)cc1OC`, the survival was inactive: 82%.

Regarding `CC1=C(C(=O)Nc2ccccc2)C(c2ccncc2)n2nc(SCc3ccccc3Cl)nc2N1` (configuration not stated), the survival was inactive: 74%.

With `O=C(Cn1c(=O)n(Cc2ccco2)c(=O)c2ccccc21)Nc1ccc(Cl)cc1Cl`, the survival is inactive: 83%.

As for `Cc1ccc(S(=O)(=O)Cc2ccc(C(=O)N3CCN(c4cccc(C)c4C)CC3)o2)cc1`, the survival was inactive: 126%.

`CCC(Cn1nnc2ccccc2c1=O)NC(=O)Nc1cccc(C)c1C` (configuration not stated): the survival is inactive: 55%.

As for `COc1ccc(C(=O)OCc2cc(=O)n3nc(-c4cccs4)sc3n2)cc1`, the survival was inactive: 60%.

Turning to `CCC(=O)N1CCc2cc(Br)cc(S(=O)(=O)CCC(=O)N3CCN(c4cccc(C(F)(F)F)c4)CC3)c21`, the survival is inactive: 57%.

As for `Cc1ccc(NC(=O)C2CCCN(c3nnc(C)c4c(C)n(-c5ccccc5)nc34)C2)c(Cl)c1` (configuration not stated), the survival is inactive: 99%.

For the molecule `O=[N+]([O-])c1cc(-c2nc(-c3ccccc3)no2)ccc1N1CCCCC1`, the survival is inactive: 53%.

For the molecule `CCC(CO)NC(=O)C(=O)Nc1c2c(nn1-c1ccc(F)cc1)CSC2` (configuration not stated), the survival was inactive: 80%.

On to `CN(C)c1nc(Cl)nc(NCCOc2ccccc2)n1`, for which the survival was inactive: 100%.

With `CCOC(=O)c1cnn(Cc2ccccc2)c1N`, the survival is inactive: 79%.

As to `CC(C)(C)c1ccc(S(=O)(=O)NCc2ccc3c(c2)CCN3C(=O)c2ccccc2)cc1`, the survival is inactive: 67%.

Turning to `CCN(CC)S(=O)(=O)c1ccc2nc(NC(=O)c3cccnc3)sc2c1`, the survival is inactive: 80%.

As to `O=C(c1ccc(Cl)cc1)N1CCC(c2ccncc2)CC1`, the survival was inactive: 87%.

With `COc1cc(-c2noc(-c3ccc(N4CCN(C)CC4)c([N+](=O)[O-])c3)n2)cc(OC)c1OC`, the survival is inactive: 105%.

As for `O=C(Cn1c(=O)ccc2cc(S(=O)(=O)N3CCCC3)ccc21)NCc1ccc(Cl)cc1`, the survival is inactive: 102%.

Turning to `O=C(NCCO)c1ccc2[nH]c3c(c2c1)CCCC3`, the survival is inactive: 85%.

For the molecule `CCOc1ccc(NC(=O)c2c(Nc3ccc(OC)cc3OC)sc(C(=O)c3ccc(Cl)cc3)c2N)cc1`, the survival was inactive: 102%.

For the molecule `COCCn1c(=O)[nH]c2cc(C(=O)NCc3ccccc3Cl)ccc2c1=O`, the survival was inactive: 89%.

Consider `CCOc1ccc(CCNC(=O)CCc2cn(Cc3ccccc3F)c3ccccc23)cc1OCC`, for which the survival is inactive: 74%.

As to `CCOC(=O)c1cccc(NC(=O)c2cc3sccc3n2Cc2ccc(Cl)cc2)c1`, the survival was inactive: 106%.

Regarding `CCC(C)C(=O)NCc1ccc(C)cc1` (configuration not stated), the survival was inactive: 88%.

On to `CCN(c1ncnc2c1cnn2-c1ccc(C)cc1)C1CCCCC1`, for which the survival was inactive: 89%.

On to `COc1ccccc1CNS(=O)(=O)c1c(C)nc2scc(C)n2c1=O`, for which the survival is inactive: 75%.

Consider `Cc1cc(Nc2ccc(C)c(Cl)c2)n2nc(Cc3ccccc3)nc2n1`, for which the survival is active: 31%.

For the molecule `CCOc1ccc2oc(=O)cc(CN3CCN(c4cc(C)ccc4C)CC3)c2c1`, the survival is inactive: 75%.

Take `CCOc1cc(S(=O)(=O)NCc2ccc(OC)cc2)c(OCC)cc1-n1cnnn1`: the survival is inactive: 101%.

For the molecule `CC(C)CN(CCCNC(=O)c1cc(=O)[nH]c2ccc(S(=O)(=O)N3CCCCCC3)cc12)CC(C)C`, the survival is inactive: 77%.

`CCNC(=O)c1cc2sccc2n1Cc1ccccc1`: the survival is inactive: 93%.

As to `CC(=O)N1c2nc(C(C)C)nn2C2(CCCCC2)[C@@H]2CCCC[C@@H]21`, the survival is inactive: 93%.

For `O=C(CSc1nnc(-c2cccc(Cl)c2)o1)N1CCc2ccccc21`, the survival is inactive: 85%.

In the case of `COc1cc(OC)c(NC(=O)C2=C(C)C(=O)OC23CCCCCC3)cc1Cl`, the survival is inactive: 102%.

For `CCn1c2c(c(=O)n3ncc(C(=O)Nc4cc(Cl)ccc4C)c13)CN(Cc1ccc(OC)cc1)CC2`, the survival was inactive: 94%.

The values above are taken from PubChem BioAssay AID463173 (ICCB-Longwood Screening Facility, Harvard Medical School, 2010).
